Measurements published in patent US20210355180A1 (published 2021).

Columns and labels:
[1] = molecular target: T1, N-terminally biotinylated human Aβ1-40 peptide (human, N-terminal biotin); assay: SPR (Biacore 2000), peptide on SA chip
T1 construct: AnaSpec; immobilised on Neutravidin or streptavidin chips, or added in ELISA; also called hAβ1-40; biotinylated hAβ1-40

[2] = molecular target: T2, N-terminally biotinylated human Aβ1-42 peptide (human, N-terminal biotin); assay: SPR (Biacore 2000), peptide on SA chip
T2 construct: AnaSpec AS-24641-01; also called hAβ1-42

| Binder | koff [1] [s⁻¹] | kon [1] [M⁻¹ s⁻¹] | koff [2] [s⁻¹] | kon [2] [M⁻¹ s⁻¹] |
| --- | --- | --- | --- | --- |
| ABPP095a with C-terminal His6 tag (designed binder, scaffold mutated variant of ABPP095) AGGERVYLPNLNADQLCAFIRSLEDDPSQSANLLAEAKKLSEAQAPASSSSGSSSSGRASAGGERVYLPNLNADQLCAFIRSLEDDPSQSANLLAEAKKLSEAQAPKLEHHHHHH | 0.0003 | 74000 | 0.00062 | 120000 |
| ABPP095c with C-terminal His6 tag (designed binder, scaffold mutated variant of ABPP095) AGGERVYLPNLTADQLCAFIRKLEDDPSQSSELLSEAKKLSESQAPASSSSGSSSSGRASAGGERVYLPNLTADQLCAFIRKLEDDPSQSSELLSEAKKLSESQAPKLEHHHHHH | 0.00019 | 81000 | 0.00036 | 140000 |
| ABPP095b with C-terminal His6 tag (designed binder, scaffold mutated variant of ABPP095) AGGERVYLPNLNADQLCAFIRSLEDDPSQSSELLSEAKKLSESQAPASSSSGSSSSGRASAGGERVYLPNLNADQLCAFIRSLEDDPSQSSELLSEAKKLSESQAPKLEHHHHHH | 0.00068 | 50000 | 0.0015 | 100000 |
